Article PMC4726241, “Crystal structure and SUMO binding of Slx1-Slx4 complex” (Scientific Reports, 2016)
No constants are given. Whether binding was seen depends on the method and setting. Some entries that bind do so weakly or less than the wild type.

What was measured:
[1] = biological target: T1, Slx4 C-terminal conserved domain, residues 352-419 (S. pombe) (UniProt Q9P6M0); experiment: SEC; analytical size-exclusion chromatography of the purified, co-expressed complex; both purified
T1 sequence: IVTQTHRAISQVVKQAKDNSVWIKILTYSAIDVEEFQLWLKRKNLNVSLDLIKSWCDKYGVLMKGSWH

[2] = biological target: T1, Slx4 C-terminal conserved domain, residues 352-419 (S. pombe); experiment: crystal structure; sitting drop, 18 °C, 1.3 M ammonium sulfate, 0.1 M Bis-Tris pH 6.8; zinc SAD; 2.0 Å; both purified
[3] = biological target: T1, Slx4 C-terminal conserved domain, residues 352-419 (S. pombe); experiment: co-purification; co-expressed in E. coli; HisTrap capture by His6-Slx4^CCD, thrombin cleavage, gel filtration, anion exchange (similar procedure)
[4] = biological target: T2, Slx1^(RING+CT SIMmut)-Slx4^CCD complex (S. pombe) (UniProt Q9P7M3+Q9P6M0); experiment: condition: 2.37 mM Pmt3 injected into 120 μM complex; ITC; 2.37 mM Pmt3 injected into 120 μM complex in the cell; 25 °C; 20 mM sodium phosphate pH 6.8, 100 mM NaCl; three repeats; both purified
T2 sequence 1: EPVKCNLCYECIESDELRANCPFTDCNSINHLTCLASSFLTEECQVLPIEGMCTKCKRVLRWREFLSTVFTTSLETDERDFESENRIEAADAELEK
T2 sequence 2: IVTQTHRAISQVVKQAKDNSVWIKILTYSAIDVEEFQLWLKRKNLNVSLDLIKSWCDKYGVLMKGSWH

[5] = biological target: T3, Slx1^RING-Slx4^CCD complex (S. pombe) (UniProt Q9P7M3+Q9P6M0); experiment: as above
T3 sequence 1: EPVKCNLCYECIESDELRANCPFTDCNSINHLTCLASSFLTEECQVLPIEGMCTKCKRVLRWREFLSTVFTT
T3 sequence 2: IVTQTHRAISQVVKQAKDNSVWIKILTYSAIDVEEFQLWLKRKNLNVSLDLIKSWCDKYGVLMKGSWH

[6] = biological target: T4, mature Pmt3 (S. pombe SUMO), residues 1-111 (S. pombe) (UniProt O13351); experiment: condition: 0.81 mM complex with 0.27 mM Pmt3 (molar ratio 1:3); NMR titration; 2D 15N HSQC of 0.27 mM 15N-labelled Pmt3 with 0 to 0.81 mM complex; 298 K; 20 mM sodium phosphate pH 6.8, 100 mM NaCl, 10% D2O; both purified
T4 sequence: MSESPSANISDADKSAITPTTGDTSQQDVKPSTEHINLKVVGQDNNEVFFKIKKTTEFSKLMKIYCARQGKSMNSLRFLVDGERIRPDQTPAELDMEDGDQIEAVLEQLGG

Binder | binding [3] | binding [6] | other results
Slx1 C-terminal zinc finger (RING finger domain), residues 176-247 (domain or fragment, UniProt Q9P7M3 176-247) EPVKCNLCYECIESDELRANCPFTDCNSINHLTCLASSFLTEECQVLPIEGMCTKCKRVLRWREFLSTVFTT | – | – | binding [1]: binds; binding [2]: binds
C-terminal domain of Slx1, residues 176-271 (domain or fragment, UniProt Q9P7M3 176-271) EPVKCNLCYECIESDELRANCPFTDCNSINHLTCLASSFLTEECQVLPIEGMCTKCKRVLRWREFLSTVFTTSLETDERDFESENRIEIIDLELEK | binds | – | –
C-terminal domain of Slx1, residues 176-271, IIDLE mutated to AADAE (domain or fragment, UniProt Q9P7M3 176-271) EPVKCNLCYECIESDELRANCPFTDCNSINHLTCLASSFLTEECQVLPIEGMCTKCKRVLRWREFLSTVFTTSLETDERDFESENRIEAADAELEK | binds | – | –
mature Pmt3 (S. pombe SUMO), residues 1-111 (natural protein, UniProt O13351 1-111, looked up, Pmt3 (SUMO), Schizosaccharomyces pombe, mature form, residues 1-111; Uniformly 15N-labelled for the NMR titrations; source: E. coli, purified by a procedure similar to that of the complex) MSESPSANISDADKSAITPTTGDTSQQDVKPSTEHINLKVVGQDNNEVFFKIKKTTEFSKLMKIYCARQGKSMNSLRFLVDGERIRPDQTPAELDMEDGDQIEAVLEQLGG | – | – | binding [4]: no binding; binding [5]: no binding
Slx1^RING-Slx4^CCD complex (complex, UniProt Q9P7M3 176-247; Q9P6M0 352-419) chain 1: EPVKCNLCYECIESDELRANCPFTDCNSINHLTCLASSFLTEECQVLPIEGMCTKCKRVLRWREFLSTVFTT chain 2: IVTQTHRAISQVVKQAKDNSVWIKILTYSAIDVEEFQLWLKRKNLNVSLDLIKSWCDKYGVLMKGSWH | – | no binding | –
Slx1^(RING+CT SIMmut)-Slx4^CCD complex (complex, UniProt Q9P7M3 176-271; Q9P6M0 352-419) chain 1: EPVKCNLCYECIESDELRANCPFTDCNSINHLTCLASSFLTEECQVLPIEGMCTKCKRVLRWREFLSTVFTTSLETDERDFESENRIEAADAELEK chain 2: IVTQTHRAISQVVKQAKDNSVWIKILTYSAIDVEEFQLWLKRKNLNVSLDLIKSWCDKYGVLMKGSWH | – | no binding | –
